Source: article PMC4336329 (PLoS ONE, 2015)
Out of some 310,000 compounds screened, about 2,200 (0.71%) showed an effect of 50% or more. Effects have a minus sign here. The list shows a part of the results.

target: human ether-à-go-go-related gene (hERG) potassium channel (human, UniProt Q12809); experiment: primary screen, population patch clamp on CHO cells stably expressing hERG
Sequence (Q12809 whole entry, looked up): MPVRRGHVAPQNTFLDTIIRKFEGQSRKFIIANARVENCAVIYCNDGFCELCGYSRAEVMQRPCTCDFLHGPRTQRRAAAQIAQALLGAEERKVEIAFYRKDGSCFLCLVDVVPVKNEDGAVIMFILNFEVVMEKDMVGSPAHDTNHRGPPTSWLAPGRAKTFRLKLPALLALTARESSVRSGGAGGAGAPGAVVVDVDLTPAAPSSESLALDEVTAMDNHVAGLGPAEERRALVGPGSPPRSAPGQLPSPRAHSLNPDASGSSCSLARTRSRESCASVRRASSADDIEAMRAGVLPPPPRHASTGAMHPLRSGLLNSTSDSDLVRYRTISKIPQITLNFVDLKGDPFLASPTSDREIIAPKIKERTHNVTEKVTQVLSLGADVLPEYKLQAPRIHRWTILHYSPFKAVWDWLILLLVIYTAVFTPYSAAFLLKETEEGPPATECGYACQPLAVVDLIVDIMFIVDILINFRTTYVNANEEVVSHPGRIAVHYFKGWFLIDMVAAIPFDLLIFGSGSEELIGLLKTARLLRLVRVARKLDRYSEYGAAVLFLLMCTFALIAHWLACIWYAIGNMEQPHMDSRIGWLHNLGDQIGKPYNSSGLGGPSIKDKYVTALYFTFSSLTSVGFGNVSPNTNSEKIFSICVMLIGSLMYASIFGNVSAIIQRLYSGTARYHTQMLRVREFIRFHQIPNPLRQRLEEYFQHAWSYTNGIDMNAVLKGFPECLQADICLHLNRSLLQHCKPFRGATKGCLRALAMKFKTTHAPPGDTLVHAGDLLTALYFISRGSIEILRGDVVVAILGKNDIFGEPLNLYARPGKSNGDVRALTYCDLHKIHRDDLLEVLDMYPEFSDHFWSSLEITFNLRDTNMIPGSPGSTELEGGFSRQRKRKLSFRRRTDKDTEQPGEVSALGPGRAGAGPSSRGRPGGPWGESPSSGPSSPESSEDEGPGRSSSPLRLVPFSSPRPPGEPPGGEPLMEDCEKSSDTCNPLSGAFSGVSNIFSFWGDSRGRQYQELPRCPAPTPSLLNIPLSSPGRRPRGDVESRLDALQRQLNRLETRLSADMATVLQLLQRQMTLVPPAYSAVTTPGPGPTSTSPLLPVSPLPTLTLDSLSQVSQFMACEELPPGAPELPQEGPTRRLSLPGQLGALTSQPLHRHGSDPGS

SMILES | hERG current change (%, negative = inhibition) at 1uM
O=S(=O)(Nc1nc2ccccc2nc1Nc1ccc2c(c1)OCO2)c1ccccc1 | 15.6%
CN(C)CCCO/N=C(\c1ccccc1)c1ccncc1.O=C([O-])C(=O)[O-] | 7.01%
O=C(CCc1nnc(CCCCc2ccccc2)o1)N1CCN(CCO)CC1 | 7.79%
CC(=O)Nc1ccc(NC(=O)[C@H](C)NC(=O)c2ccco2)cc1 | 22.8%
O=c1[nH]c(CSc2nnc(COc3ccccc3)n2-c2ccccc2)nc2ccccc12 | 16.4%
CCc1ccccc1NC(=O)/C(C#N)=C/c1ccc(Sc2ccccc2)o1 | 4.57%
CCOC(=O)CC(=O)CSc1ncnc2c1nnn2-c1ccc(F)cc1 | 17%
COc1ccc(CNC(=O)CSc2cc(=O)n(C)c3ccccc23)cc1 | 8.24%
COc1ccc(NC(=O)CC2Nc3cc(C)c(C)cc3NC2=O)c([N+](=O)[O-])c1 (stereo not shown) | 13.2%
O=C(Nc1ccc(Cl)cc1)C1C2CCCCC21 (stereo not shown) | 15%
Cc1cccc(CCNC(=O)CCNS(=O)(=O)c2cc(Br)cnc2N)c1 | 9.25%
Cc1ccc(CC(=O)Nc2ccc(C(=O)N3CCCCC3)cc2)cc1 | 15.3%
COc1ccc(NC(=O)N2CCC(NC(=O)c3ccco3)CC2)cc1 | 7.08%
CC(OC(=O)c1nsc(Cl)c1Cl)C(=O)NC1CCCCC1 (stereo not shown) | 16.4%
Cl.NCC(O)(c1ccc(Cl)cc1)c1ccc(Cl)cc1 | 11.5%
COC(=O)C1CCC(=S)N1C(=O)c1ccccc1 (stereo not shown) | 14.2%
COc1ccc(NCc2ccc([N+](=O)[O-])s2)cc1 | 4.56%
O=C(CNC(=O)c1ccc(Br)o1)NCc1ccc(Cl)cc1 | 12.5%
CC(C(=O)N1CCCCCC1)N(c1ccc(Cl)cc1)S(C)(=O)=O (stereo not shown) | 15%
Cc1nc(S/C(=C/c2ccc(OCc3ccc(C(=O)O)cc3)cc2)C(=O)O)n[nH]1 | 12.1%
O=C(N/N=C/c1c[nH]c2ccccc12)c1cc(Br)ccc1O | 11.4%
Cc1nc(/N=C(\N)NC(=O)NC2CCCCC2)nc2ccccc12 | 7.41%
CC1CCN(CCC(=O)Nc2ccc(Br)cc2)CC1.Cl | -7.07%

SMILES | hERG current change (%, negative = inhibition) at 1uM
COc1cccc(CN2C(=O)CCC2(C)C(=O)NC2CCCC2)c1 (stereo not shown) | 6.05%
COc1ccc(C(=O)c2ccc(CC(=O)O)s2)cc1 | 9.58%
CC(Oc1ccc(Cl)cc1)C(=O)Nc1ccccc1C(=O)N1CCOCC1 (stereo not shown) | -1.27%
NC(=O)C1CCCN(C(=O)NC2CCCCC2)C1 (stereo not shown) | 0.0848%
COCCn1c(-c2ccco2)csc1=Nc1cccnc1.Cl | -2.68%
COc1ccc2cc(C(c3nnnn3C3CCCC3)N3CCCCCC3)c3nnnn3c2c1 (stereo not shown) | 17.5%
COc1ccc(Cl)cc1NC(=O)C1CC(=O)N(c2ccc(F)cc2)C1 (stereo not shown) | 1.08%
Cc1ccc(-c2nnn(CC(=O)N(c3ccccc3F)C(C(=O)NC3CCCC3)c3ccco3)n2)o1 (stereo not shown) | 2.67%
CC(NC(=O)c1cccc(F)c1)C(c1cccs1)N1CCN(C)CC1 (stereo not shown) | 11.8%
CCOC(=O)CSc1nnc(COc2cccc(C)c2)o1 | 10.6%
Nc1ccc(C(=O)N/N=C\C=C\c2cccc([N+](=O)[O-])c2)cc1 | 9.17%
Cc1nc([N+](=O)[O-])c(C(=O)OCc2ccccc2Br)n1C | 1.8%
CN(C)c1ccc(C(=S)N2CCNCC2)cc1 | 12.8%
Cc1ccc(C(=O)C2=C(O)C(=O)N(Cc3ccccc3)C2c2cccnc2)o1 (stereo not shown) | 10.2%
O=C(Nc1ccc2c(c1)CCC2)Nc1ccccc1Cl | 15.6%
CSCC[C@H](NC(=O)N1CCn2c1nc1ccccc12)C(=O)NC1CC1 | 12.7%
CCOC(=O)N1CCC(NC(=O)Cn2nc(Cc3ccncc3)c3ccccc3c2=O)CC1 | 17.4%
COCc1nc2ccccc2n1Cc1ccc(Br)cc1 | 3.34%
COc1ccccc1OCCCc1c(C)n[nH]c1C | 1.99%
COC(=O)c1cc(OC)c(OC)cc1NC(=O)CCC1CCCC1 | 11.9%
COC(=O)C1=C(N)OC2=C(C(=O)CCC2)C1c1cccnc1 (stereo not shown) | 6.75%
CC(=O)Nc1cc(-c2nn(CC(=O)N3CCCCC3)c(=O)c3ccccc23)ccc1N1CCOCC1 | 6.3%
O=C(N/N=C/c1cc(Br)ccc1O)Nc1ccccc1 | 18.7%

SMILES | hERG current change (%, negative = inhibition) at 1uM
Cc1ccc([N+](=O)[O-])cc1S(=O)(=O)NCCc1c(C)[nH]c2c(C)cccc12 | 8.49%
Cc1ncc([N+](=O)[O-])n1CC(=O)Nc1ccc(OC(F)(F)Cl)cc1 | 19.9%
CC(=O)N(Cc1ccc(F)cc1)c1cccc(C)c1C | 13%
CCCOc1ccc(C(=O)NCC(c2ccco2)N(C)C)cc1 (stereo not shown) | -3.89%
CCOc1cc(CNCc2ccncc2)cc(Br)c1OCc1ccc(F)cc1.Cl | 4.11%
CSc1nc(-c2ccccc2)nc(N2CCCC2)c1C(C)=O | -4.89%
CCOC(=O)c1c(C)[nH]c(C(=O)CSc2nccc(C)n2)c1C | 17.7%
O=C(CN1CC[n+]2c(-c3ccccc3)csc21)c1ccc(Br)cc1.[Br-] | 5.16%
CCCCN1C(=O)c2ccccc2C1C(=O)NC1CCCC1 (stereo not shown) | 8.85%
CNC(=O)NC(=O)CSc1nc2cc(C(=O)OC)ccc2c(=O)n1-c1ccccc1 | 6.33%
O=C(NNS(=O)(=O)c1ccc(Br)cc1)c1sccc1-n1cccc1 | 13.8%
O=C(NNS(=O)(=O)c1ccc2ccccc2c1)c1cc(-c2ccccn2)nc2ccccc12 | 15.8%
O=C(Nc1nnc(C2CCCCC2)s1)c1ccc(Br)s1 | -5.3%
CCNC(=O)COc1cc(C)c(Br)c(C)c1 | 9.75%
CCC1(CC)Cc2ccccc2-c2nc(CN(C)C)[nH]c(=O)c21 | 15.8%
CC(NC(=O)/C(C#N)=C/c1cn[nH]c1-c1ccccc1)c1ccccc1 (stereo not shown) | 9.07%
CN(C)/C=C(\C#N)C(=O)Nc1ccc(O)cc1F | 9.47%
COc1ccc(-c2csc(N(CCCN(C)C)C(=O)c3ccccc3C)n2)cc1.Cl | -2.13%
O=C(CSc1nc(-c2ccccc2)cs1)NC(=O)NCc1ccco1 | 7.04%
CCC(CC)C(=O)c1c[nH]c(C(=O)NCc2ccc(F)cc2)c1 | 5.71%
COc1ccc2ccc(O)c(CN(C)CC(=O)Nc3ccccc3C(F)(F)F)c2c1 | 6.43%
O=C1C=C(Nc2ccc(Cl)cc2)CC(c2ccc(Cl)cc2)C1 (stereo not shown) | 10.8%
O=c1[nH]nc(CNc2ccc(C(F)(F)F)cc2)c2ccccc12 | 1.87%

SMILES | hERG current change (%, negative = inhibition) at 1uM
Cc1nn(CC(=O)NCCN2CCCCCC2)c(=O)c2nn(-c3ccccc3)c(C)c12 | 10.3%
C[C@H]1CN=C(Nc2ccccc2)N1CC1CCC1 | 5.63%
COc1ccc(C(=O)NCCc2nnc3ccc(SCC(=O)N4CCOCC4)nn23)cc1 | 7.86%
COc1cc(NC(=O)CCn2c(=S)oc3ccccc32)cc(OC)c1OC | -1.54%
CCCCN(C(C)=O)c1c(N)n(CCC)c(=O)n(CC(=O)Nc2cc(Cl)cc(Cl)c2)c1=O | 13.3%
CCCCNC(=O)CN1C(=O)C(CC)Oc2ccc(Cl)cc21 (stereo not shown) | 6.11%
CC1CCc2sc3ncnc(N4CCOCC4)c3c2C1 (stereo not shown) | -2.2%
CCOC(=O)CSc1cc(-c2ccccc2)nc2ncnn12 | 6.11%
O=C(CCSc1ccc(F)cc1)Nc1ccc(-n2cnnn2)cc1 | 10.3%
Cn1c(=O)c2c(nc3n2CC(COc2ccc(Cl)cc2)O3)n(C)c1=O (stereo not shown) | 14.6%
CC(Oc1ccccc1F)C(=O)NC1CCS(=O)(=O)C1 (stereo not shown) | 12.4%
COc1ccccc1C(=O)NC(=S)Nc1cc(C(=O)O)ccc1C | 12.2%
Cc1nc(C)c(N)c(=O)[nH]1.Cl | 13.2%
Cc1cc(C(F)(F)F)nn1CC(=O)NCc1ccco1 | 6.61%
COc1ccccc1NC(=S)Nc1ccccc1F | 8.75%
CCCOc1ccc(OCCN2CCCC(C)C2)cc1.O=C(O)C(=O)O (stereo not shown) | 0.638%
COc1cccc(C(c2nnnn2Cc2ccco2)N2CCN(Cc3ccccc3)CC2)c1OC.Cl (stereo not shown) | -0.106%
Cc1ccc(C(=O)COc2ccccc2-c2ccccc2)cc1 | 9.48%
O=C(CSc1nnc(-c2cccnc2)n1-c1ccc(F)cc1)NCc1ccc2c(c1)OCO2 | -54.5%
COc1ccc(-n2sc3c(c2=S)-c2cc(OC)ccc2NC3(C)C)cc1 | 4.31%
O=C(c1cccs1)N(Cc1ccco1)Cc1cc2ccccc2[nH]c1=O | -2.69%
Nc1nc(NCCCN2CCOCC2)nc(Nc2ccc(F)cc2)c1[N+](=O)[O-] | -13.9%
